{
  "source": "PubChem BioAssay AID686979",
  "about": "(National Center for Advancing Translational Sciences (NCATS), 2013)",
  "note": "Among all 420,000 compounds or so, about 50,000 (12%) were called active. Inconclusive means that the source gave no clear call. Such entries were picked first, then a sample of the others. Calls follow the shape of the dose curve; as a rule, active = well fitted inhibition curve with a large enough effect; inconclusive = small, poorly fitted or top-dose-only effect; inactive = flat fitted curve, though single readings scatter. Potencies of inconclusive entries are left out as doubtful fits. % is scaled to controls: 0 for no effect and ±100 for the full control effect; potency is read from the fitted curve at half-maximal effect; tags tell the direction and shape of the fitted curve.",
  "data": [
    {"assay": "qHTS for Inhibitors of human tyrosyl-DNA phosphodiesterase 1 (TDP1): qHTS in cells in presence of CPT; also: nearly all actives have a fitted effect of over 55% in size", "conditions": "chicken DT40 Tdp1-/-;hTDP1 cells + 20 nM CPT, ATP luminescence, 48 h; activity change, negative = growth inhibition: at 46.2 µM (top of the series) unless noted", "procedure,_shortened": "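Chicken DT40 Tdp1-/- cells stably complemented with human TDP1 were seeded at 400 cells/well in medium containing 20 nM camptothecin, exposed to pin-transferred compounds, and grown at 37 °C for at least 48 hr. Viability was read as ATP luminescence.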", "values": [
      {"compound": "CCc1ccc(CNC(=O)C2CCN(S(=O)(=O)N3CCC(C)CC3)CC2)cc1", "Potency": "inconclusive [inhibitor, single point]"},
      {"compound": "CCCCN(C)C(=O)C1CCN(c2ccc(S(=O)(=O)N3CCOCC3)cc2[N+](=O)[O-])CC1", "Potency": "inconclusive [inhibitor, single point]"},
      {"compound": "Clc1ccc(-c2ccc(CNCCSc3nnnn3-c3ccccc3)o2)cc1", "Potency": "inconclusive [inhibitor, single point]"},
      {"compound": "CC(C)Cn1c(N)c(C(=O)COC(=O)c2cccc(F)c2)c(=O)n(C)c1=O", "Potency": "inconclusive [inhibitor, single point]"},
      {"compound": "O=C(C1CCCN(S(=O)(=O)c2cccc3nonc23)C1)N1CCN(c2ccccc2F)CC1", "note": "(centres undefined)", "Potency": "active: 18.4 µM"},
      {"compound": "Cc1ccc(CNC(=O)CCC(=O)n2ncc3cc(C)ccc32)cc1", "Potency": "inactive"},
      {"compound": "CCOc1ccccc1N1CC(C(=O)NCCC2=CCCCC2)CC1=O", "note": "(centres undefined)", "Potency": "inconclusive [inhibitor, partial curve]"},
      {"compound": "O=C(CCn1c(=O)c2cccn2c2ccc(F)cc21)NCCc1ccc(Cl)cc1", "Potency": "inconclusive [inhibitor, single point]"},
      {"compound": "Cc1ccc(S(=O)(=O)N2C[C@H]3[C@H]4C(=O)N(C)C(=O)[C@H]4CC(=O)[C@H]3[C@@H]2c2ccccc2F)cc1", "Potency": "inactive"},
      {"compound": "Cc1ccc(OCCNC(=O)CNC(=O)c2ccc(Cl)c([N+](=O)[O-])c2)cc1", "Potency": "inconclusive [inhibitor, single point]"},
      {"compound": "COc1ccc(NC(=O)N2CCC(CN3CCCC3)CC2)c(OC)c1", "Potency": "inactive"},
      {"compound": "COc1ccc(OCC(=O)Nc2ccc(S(=O)(=O)N(C)c3ccccc3)cc2)cc1", "Potency": "inactive"},
      {"compound": "COC(=O)c1ccccc1NC(=O)CSc1cc(-c2ccccc2)nc(C)n1", "Potency": "inconclusive [inhibitor, single point]"},
      {"compound": "O=C(NCc1ccccn1)C1CCN(C(=O)c2cc3sccc3n2Cc2ccc(F)cc2)CC1", "Potency": "inconclusive [inhibitor, single point]"},
      {"compound": "COc1cc(OC)cc(C(=O)NCCn2ccc3ccccc32)c1", "Potency": "inconclusive [inhibitor, single point]"},
      {"compound": "C/C(=N\\NC(=O)c1cc(-c2cccc([N+](=O)[O-])c2)n[nH]1)c1ccc(F)cc1", "Potency": "inactive"},
      {"compound": "CCN(CC)S(=O)(=O)c1nnc(NC(=O)COc2ccccc2)s1", "Potency": "inactive"},
      {"compound": "COc1ccc(/C=C2\\C(=O)ON=C2c2ccccc2)cc1OC", "Potency": "active: 25.9 µM"},
      {"compound": "CCN1CCN(c2oc(-c3ccc(COc4ccc(OC)cc4)o3)nc2C#N)CC1", "Potency": "inconclusive [inhibitor, single point]"},
      {"compound": "C/C=C1\\COC(C(=O)NCc2ccccc2)(C(F)(F)F)C=C1C=C1CCCCC1", "note": "(centres undefined)", "Potency": "inconclusive [inhibitor, single point]"},
      {"compound": "COc1ccc2oc(C(=O)OCC(=O)N(C)c3c(N)n(Cc4ccccc4)c(=O)[nH]c3=O)c(C)c2c1", "activity change, negative = growth inhibition": "inconclusive: -32.4% [inhibitor]"},
      {"compound": "COC(=O)C1=C(C)NC(C)=C(C(=O)OCC2CCCO2)C1c1cccc(Br)c1", "note": "(centres undefined)", "Potency": "inconclusive [inhibitor, single point]"},
      {"compound": "Clc1ccccc1-c1nc(-c2ccncc2)no1", "Potency": "inconclusive [inhibitor, single point]"},
      {"compound": "C/C(=N\\NC(=O)OC(C)(C)C)c1cccc([N+](=O)[O-])c1", "Potency": "inconclusive [inhibitor, partial curve]"},
      {"compound": "C(=N\\Nc1nc(-c2cccnc2)nc2ccccc12)/c1ccccc1", "Potency": "inconclusive [inhibitor, partial curve, poor fit]"},
      {"compound": "O=C(CCS(=O)(=O)c1ccc(F)cc1)Nc1nnc(-c2ccc(F)cc2)o1", "Potency": "active: 13 µM"},
      {"compound": "CC(=C\\c1ccccc1)/C=C1/SC(=S)N(CC(=O)O)C1=O", "Potency": "inactive"},
      {"compound": "O=C(CCN1C(=O)C2C3C=CC(C3)C2C1=O)N1CCN(c2ccccc2F)CC1", "note": "(centres undefined)", "Potency": "inactive"},
      {"compound": "O=C(O)C1C2C=CC(C2)C1C(=O)NCc1ccc(Cl)c(Cl)c1", "note": "(centres undefined)", "Potency": "active: 14.6 µM"},
      {"compound": "Clc1cccc(-n2ncc3c(NCCC4=CCCCC4)ncnc32)c1", "Potency": "inconclusive [inhibitor, single point]"},
      {"compound": "COc1ccc(OCCNC(=O)c2ccccc2OCC(=O)N2CCCCC2)cc1", "Potency": "active: 20.6 µM"},
      {"compound": "O=C1OCCN1c1c(-c2ccccc2)c(N2CCOCC2)nc2ccccc12", "Potency": "active: 11.6 µM"},
      {"compound": "CCOC(=O)N1CCC(N2Cc3cccc(C(=O)Nc4ccc(OCC)cc4)c3C2=O)CC1", "Potency": "inconclusive [inhibitor, single point]"},
      {"compound": "COc1ccc(-c2noc(CCC(=O)NC3CCCCCC3)n2)cc1OC", "Potency": "inconclusive [inhibitor, single point]"},
      {"compound": "COc1cccc(/C=N/NC(=O)N/N=C/c2cccc(OC)c2O)c1O", "Potency": "inconclusive [inhibitor, single point]"},
      {"compound": "Cc1cc(O)c(C(c2ccc(F)cc2)N2CCN(c3ccccc3)CC2)c(=O)n1Cc1ccco1", "note": "(centres undefined)", "Potency": "inactive"},
      {"compound": "Cc1cccc(COCC(Cc2ccccc2)N2CCN(C(=O)c3cccc(C)c3)CCC2=O)c1", "note": "(centres undefined)", "Potency": "inconclusive [inhibitor, single point]"},
      {"compound": "COc1ccccc1/C=C/CN1CCC(Oc2ccc(C(=O)N3CCCCC3)cc2)CC1", "Potency": "inconclusive [inhibitor, single point]"},
      {"compound": "O=C(CCc1nnc(CCCCc2ccccc2)o1)NC1CCCC1", "Potency": "inactive"},
      {"compound": "CCCCN1C(=O)C(NC(=O)c2ccc(C(C)(C)C)cc2)(C(F)(F)F)C(C(=O)OC)=C1C", "note": "(centres undefined)", "Potency": "inconclusive [inhibitor, single point]"},
      {"compound": "COc1cccc(Nc2nc(-c3cccs3)nc3ccccc23)c1", "Potency": "inconclusive [inhibitor, single point]"},
      {"compound": "O=C(O)CCc1cccnc1", "Potency": "inactive"},
      {"compound": "CC(C)(C)OC(=O)N1C[C@H](O)C[C@H]1C(=O)OCC(=O)c1ccc([N+](=O)[O-])cc1", "Potency": "active: 16.4 µM"},
      {"compound": "Cc1ccccc1OCC(=O)Nc1cccc(NC(=O)c2ccco2)c1", "Potency": "inconclusive [inhibitor, single point]"},
      {"compound": "CC(C)(C)c1ccc(CC(=O)N2CCC2(C)C(=O)N2CCCCC2)cc1", "note": "(centres undefined)", "Potency": "inconclusive [inhibitor, single point]"},
      {"compound": "C=CCN(CC=C)C(=S)NC(=O)c1ccc(-c2ccccc2)cc1", "Potency": "active: 5.8 µM"},
      {"compound": "COc1ccc(NC(=O)[C@@H]2CC=C[C@@H]3CCN(C4CCCCC4)C(=O)[C@@H]32)cc1", "Potency": "inconclusive [inhibitor, single point]"},
      {"compound": "CC(C)CNC(=O)NC(=O)CSc1nc2ccccc2n1CC(C)C", "Potency": "inconclusive [inhibitor, single point]"},
      {"compound": "CSc1ccccc1NC(=O)CN(C)C(=O)C1CCN(C(=O)Nc2ccccc2)CC1", "Potency": "inactive"},
      {"compound": "O=C(CCNC(=O)c1ccc(Br)cc1)NCCCN1CCCC1=O", "Potency": "inactive"},
      {"compound": "O=[N+]([O-])c1cc(/C=N/N2CCN(c3ccccc3)CC2)ccc1Cl", "Potency": "inconclusive [inhibitor, single point]"},
      {"compound": "COc1ccc(C(=O)N/C(=C\\c2ccco2)C(=O)NCc2ccco2)cc1", "Potency": "inactive"},
      {"compound": "Cc1c(C(=O)N2CCN(C(=O)c3ccccc3)CC2)oc2ccc(F)cc12", "Potency": "inactive"},
      {"compound": "CCOc1ccc(-n2ccnc2SCC(=O)NCc2ccc3c(c2)OCO3)cc1", "Potency": "inconclusive [inhibitor, single point]"},
      {"compound": "CCCCCOCC1CC(C/C(C)=N/NC(N)=S)C(=O)O1", "note": "(centres undefined)", "Potency": "inconclusive [inhibitor, single point]"},
      {"compound": "COc1ccc2c(c1)OC13CCCCC1C2C(C(=O)c1ccccc1)C(=O)N3", "note": "(centres undefined)", "Potency": "inconclusive [inhibitor, partial curve]"},
      {"compound": "Cc1ccc(N2CCN(c3ncnc4onc(-c5ccc(F)cc5)c34)CC2)c(C)c1", "Potency": "inactive"},
      {"compound": "O=C(COc1ccc(-n2cnnn2)cc1)N1CCN(c2ccc(F)cc2)CC1", "Potency": "inconclusive [inhibitor, partial curve]"},
      {"compound": "COc1ccc(-n2nnnc2C2CCN(S(=O)(=O)c3cc(Cl)ccc3OC)CC2)cc1", "Potency": "active: 13 µM"},
      {"compound": "CCn1c(=O)c2sccc2n2c(CCCC(=O)Nc3ccc(C)cc3)nnc12", "Potency": "inconclusive [inhibitor, partial curve]"},
      {"compound": "CN(C)c1ccc(/C=C/c2ccnc3ccccc23)c(F)c1", "Potency": "inconclusive [inhibitor, single point]"},
      {"compound": "CCCCCC(=O)Nc1nc2ccccc2[nH]1", "Potency": "active: 9.2 µM"},
      {"compound": "Cc1noc(C)c1S(=O)(=O)N(C)C[C@H]1OCc2cnnn2CCCC(=O)N([C@@H](C)CO)C[C@H]1C", "Potency": "inactive"},
      {"compound": "COc1ccccc1NC(=O)CN1CCN(CC(=O)Nc2ccccc2F)CC1", "Potency": "inconclusive [inhibitor, single point]"},
      {"compound": "COc1ccc(C(=O)NN(C)c2nc(-c3ccccc3)cc(C)c2S(C)(=O)=O)cc1", "Potency": "active: 16.4 µM"},
      {"compound": "Cc1ccc(O)c(NC2=C(Cl)C(=O)N(Cc3ccccc3)C2=O)c1", "Potency": "inconclusive [inhibitor, single point]"},
      {"compound": "C(=C\\c1ccccc1)/CN1CCN(C(c2cccs2)c2nnnn2Cc2ccccc2)CC1", "note": "(centres undefined)", "Potency": "inconclusive [inhibitor, single point]"},
      {"compound": "O=C1CCC[C@@H]2CC(Nc3ccccc3)C[C@@H]3CCN1[C@H]23", "note": "(some centres undefined)", "Potency": "inconclusive [inhibitor, single point]"},
      {"compound": "CCOC(=O)NCc1cc(-c2nn(C)c(=O)c3ccccc23)ccc1C", "Potency": "inconclusive [inhibitor, partial curve]"}
    ]}
  ]
}
